Data on 2 molecules can be found in patent US9308215B2, “Avermectins and milbemycins as anti-mycobacterial agents” (priority 2013, dated 2016).

In brackets after ≈: the same amount, converted by molar mass.

In this experiment the test system is M. tuberculosis. The experiment in a line: microbe, parasite or virus in culture. In kind it is cell-based. Conditions: Mycobacterium tuberculosis, H37RV; for MIC90: read-out: In vitro MIC90, strain H37Rv, WT; for MIC: read-out: MIC values.

Take `CO[C@H]1C[C@H](O[C@@H]2/C(C)=C/C[C@@H]3C[C@@H](C[C@]4(CC[C@H](C)[C@@H](C5CCCCC5)O4)O3)OC(=O)[C@@H]3C=C(C)/C(=N/O)[C@H]4OC/C(=C\C=C\[C@@H]2C)[C@]43O)O[C@@H](C)[C@@H]1O` [Selamectin]: the MIC90 turned out to be 3 µg/mL (≈ 3.9 µM) and the MIC turned out to be 3 µg/mL (≈ 3.9 µM).

Regarding `CO/N=C1\C[C@]2(C[C@@H]3C[C@@H](C/C=C(\C)C[C@@H](C)/C=C/C=C4\CO[C@@H]5[C@H](O)C(C)=C[C@@H](C(=O)O3)[C@]45O)O2)O[C@H](/C(C)=C/C(C)C)[C@H]1C` [Moxidectin], the MIC90 turned out to be 3 µg/mL (≈ 4.69 µM) and the MIC stood at 3 µg/mL (≈ 4.69 µM).
